The record followed here is PubChem BioAssay AID2202238 (Ras Initiative Chemistry Research Team, Frederick National …, 2025).

The structures appear in SMILES notation. This is one part of the list. The main result of the screen is listed elsewhere. These columns were measured beside it and carry no call.

In the assay the target is GTPase KRas (Homo sapiens) (UniProt P01116). Description: Covalent labelling of cysteine mutants by fragments, read by mass spectrometry (AID 2202238). Conditions: KRAS G12D cysteine mutants, disulfide tethering, MALDI-TOF labeling, stronger effect = higher value, fragment at 500 µM. More on the design: protein at 5 µM with 500 µM competing thiol for 1.5 h.
[1] abbreviates: measured here: G60C mutant labeling.
[2] abbreviates: measured here: G75C mutant labeling.
The mark [3] stands for this setting: measured here: H94C mutant labeling.
[4] abbreviates: measured here: I36C mutant labeling.
The mark [5] stands for this setting: measured here: L120C mutant labeling.
Setting [6] is: measured here: M67C mutant labeling.
Where [7] appears, read: measured here: M72C mutant labeling.
[8] abbreviates: measured here: N26C mutant labeling.
Where [9] appears, read: measured here: N86C mutant labeling.
Setting [10] is: measured here: P121C mutant labeling.
Where [11] appears, read: measured here: S122C mutant labeling.
Setting [12] is: measured here: S136C mutant labeling.

UniProt P01116, sequence (P01116 whole entry, looked up, the tested form may be a part): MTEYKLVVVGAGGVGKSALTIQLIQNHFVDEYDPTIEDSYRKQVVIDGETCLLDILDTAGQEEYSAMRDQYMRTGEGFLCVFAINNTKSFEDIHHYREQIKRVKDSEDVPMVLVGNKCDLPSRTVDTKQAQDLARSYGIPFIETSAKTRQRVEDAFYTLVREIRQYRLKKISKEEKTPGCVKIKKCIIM

The molecule `O=C(NCCS)c1ccnc2cc(Cl)ccc12` gave a percent labeling under setting [1] of 33.2%; a percent labeling under setting [2] of 15.4%; a percent labeling under setting [3] of 15.5%; a percent labeling under setting [4] of 12.7%; a percent labeling under setting [5] of 13.1%; a percent labeling under setting [6] of 16.9%. Further, the percent labeling by setting is: under setting [7], 43.6%; under setting [8], 38.2%; under setting [9], 11.7%; under setting [10], 19.1%; under setting [11], 10.7%; under setting [12], 23.7%.
`O=C(CCS)N(CC(F)F)C1CCCCC1`: the percent labeling under setting [2] is 29.4%; the percent labeling under setting [3] came out at 28.1%; the percent labeling under setting [4] was found to be 25%; the percent labeling under setting [5] was 19%; the percent labeling under setting [6] was 20.5%; the percent labeling under setting [7] amounted to 47%. Moreover, the percent labeling runs as follows: under setting [9], 22.8%; under setting [10], 22.9%; under setting [11], 24.1%; under setting [12], 43.1%.
As to `CN(C(=O)c1cccc(C(=O)NCCS)c1)c1ccccc1`, the percent labeling reads like this: under setting [1], 39.5%; under setting [2], 20.1%; under setting [3], 32.8%; under setting [4], 26.3%; under setting [5], 34.5%; under setting [6], 38.9%. This molecule also came in with a percent labeling under setting [7] of 47.1%; a percent labeling under setting [8] of 33.5%; a percent labeling under setting [9] of 21.7%; a percent labeling under setting [10] of 25.1%; a percent labeling under setting [11] of 23.9%; a percent labeling under setting [12] of 64.5%.
Regarding `O=C(NCCS)C1(c2cc(F)cc(Br)c2)CC1`, the percent labeling was 35% under setting [1]; 17.7% under setting [2]; 20.7% under setting [3]; 16.6% under setting [4]; 19% under setting [5]; 17.2% under setting [6]. Moreover, the percent labeling came to 35.6% under setting [7]; 26.3% under setting [8]; 11.7% under setting [9]; 16.3% under setting [10]; 10.9% under setting [11]; 23.9% under setting [12].
As to `CN(C)c1ccc2cc(C(=O)NCCS)ccc2c1`, the percent labeling under setting [1] was 18.6%; the percent labeling under setting [2] is 8.4%; the percent labeling under setting [3] came to 10.3%; the percent labeling under setting [4] was 11.9%; the percent labeling under setting [5] amounted to 16.9%; the percent labeling under setting [6] came out at 7.6%. The percent labeling reads like this: under setting [7], 59.7%; under setting [8], 26.3%; under setting [9], 3.5%; under setting [10], 10.3%; under setting [11], 7.8%; under setting [12], 15.3%.
In the case of `CCC(C)c1nc(C)c(CC(=O)NCCS)c(C)n1` (stereo not given), the percent labeling under setting [1] is 31.2%; the percent labeling under setting [2] was 13.3%; the percent labeling under setting [3] amounted to 32.7%; the percent labeling under setting [4] is 26.3%; the percent labeling under setting [5] stood at 37.4%; the percent labeling under setting [6] is 30.9%. The percent labeling runs as follows: under setting [7], 19.5%; under setting [8], 33.9%; under setting [9], 23.3%; under setting [10], 33.5%; under setting [11], 28.9%; under setting [12], 43.6%.
For the molecule `O=C(CCc1nc(-c2ccc(Br)cc2)no1)NCCS`, the percent labeling turned out to be 26.7% under setting [1]; 6.3% under setting [2]; 14.2% under setting [3]; 7.6% under setting [4]; 10.3% under setting [5]; 8.6% under setting [6]. Further, the percent labeling under setting [7] is 15.1%; the percent labeling under setting [8] was 30.7%; the percent labeling under setting [9] was 4.6%; the percent labeling under setting [10] was determined as 7%; the percent labeling under setting [11] turned out to be 4.1%; the percent labeling under setting [12] came out at 7.5%.
In the case of `O=C(CCS)NCc1cn(-c2ccccc2)nc1-c1ccc(F)cc1`, the percent labeling reads like this: under setting [2], 6.4%; under setting [3], 11.8%; under setting [4], 10.3%; under setting [5], 6.9%; under setting [6], 7.5%; under setting [7], 41.4%. Further, the percent labeling reads like this: under setting [9], 11.1%; under setting [10], 5.9%; under setting [11], 4.8%; under setting [12], 14.6%.
In turn, `O=C(CCS)NC1CCC(c2nc3ccccc3[nH]2)CC1` (stereo not given) yielded a percent labeling under setting [2] of 17.2%; a percent labeling under setting [3] of 43.3%; a percent labeling under setting [4] of 49.4%; a percent labeling under setting [5] of 29.9%; a percent labeling under setting [6] of 46.2%; a percent labeling under setting [7] of 26.4%. Also, the percent labeling is, setting by setting: under setting [9], 33.3%; under setting [10], 38.7%; under setting [11], 34.8%; under setting [12], 63.2%.
With `COc1ccccc1C(=O)NCCS`, the percent labeling runs as follows: under setting [1], 68.6%; under setting [2], 38.5%; under setting [3], 63.1%; under setting [4], 33.8%; under setting [5], 52.3%; under setting [6], 49.3%. The percent labeling is, setting by setting: under setting [7], 75.7%; under setting [8], 50.5%; under setting [9], 68.2%; under setting [10], 38.6%; under setting [11], 44.5%; under setting [12], 58.5%.
As to `Cc1cccc(-c2csc(NC(=O)CCS)n2)c1`, the percent labeling is, setting by setting: under setting [2], 15%; under setting [3], 21%; under setting [4], 18%; under setting [5], 15%; under setting [6], 11.7%; under setting [7], 34.8%. In addition, the percent labeling reads like this: under setting [9], 12.5%; under setting [10], 20.8%; under setting [11], 10%; under setting [12], 35.2%.
On to `O=C(CCS)N1CCC(Nc2ccncc2)CC1`, for which the percent labeling is, setting by setting: under setting [2], 14.3%; under setting [3], 30.6%; under setting [4], 48.7%; under setting [5], 35.5%; under setting [6], 51.5%; under setting [7], 22.6%. Further, the percent labeling by setting is: under setting [9], 20%; under setting [10], 27%; under setting [11], 34.4%; under setting [12], 58.9%.
As for `O=C(NCCS)c1cc(-c2ccccc2F)no1`, the percent labeling stood at 12.9% under setting [1]; 11.8% under setting [2]; 7.1% under setting [3]; 6.6% under setting [4]; 14.2% under setting [5]; 7.8% under setting [6]. Also, the percent labeling under setting [7] amounted to 35%; the percent labeling under setting [8] was determined as 18.9%; the percent labeling under setting [9] turned out to be 7.6%; the percent labeling under setting [10] was 9.2%; the percent labeling under setting [11] amounted to 7.5%; the percent labeling under setting [12] stood at 9.9%.
As for `O=C(CCS)Nc1ccc(OC2CCCC2)nc1`, the percent labeling under setting [2] was found to be 14%; the percent labeling under setting [3] is 17.7%; the percent labeling under setting [4] came to 16.2%; the percent labeling under setting [5] came out at 14%; the percent labeling under setting [6] was 12.9%; the percent labeling under setting [7] stood at 43.9%. Moreover, the percent labeling is, setting by setting: under setting [9], 15.7%; under setting [10], 18.2%; under setting [11], 15.3%; under setting [12], 32.6%.
With `O=C(CCS)Nc1cn(-c2ccccc2)nn1`, the percent labeling is, setting by setting: under setting [2], 9.8%; under setting [3], 14.4%; under setting [4], 24.9%; under setting [5], 12.7%; under setting [6], 13.6%; under setting [7], 57.7%. Moreover, the percent labeling came out at 23.5% under setting [9], 17.5% under setting [10], 12.9% under setting [11] and 32.2% under setting [12].
On to `O=C(CCS)NCc1cccnc1-n1cccn1`, for which the percent labeling is 12.3% under setting [2]; 34.2% under setting [3]; 42.3% under setting [4]; 34.2% under setting [5]; 36.2% under setting [6]; 24.4% under setting [7]. For the same molecule, the percent labeling was determined as 33.6% under setting [9], 38.4% under setting [10], 40.4% under setting [11] and 66.9% under setting [12].
In the case of `COc1ccc(CN2CCN(C(=O)CCS)CC2)cc1F`, the percent labeling amounted to 21.8% under setting [2]; 34.7% under setting [3]; 44.2% under setting [4]; 31.3% under setting [5]; 44.4% under setting [6]; 33.9% under setting [7]. The percent labeling under setting [9] came out at 27.8%, the percent labeling under setting [10] was found to be 38.3%, the percent labeling under setting [11] was determined as 37% and the percent labeling under setting [12] was 53.9%.
Turning to `CC(C)(Cc1c[nH]c2cc(F)ccc12)NC(=O)CCS`, the percent labeling under setting [2] turned out to be 14.4%; the percent labeling under setting [3] was 25.4%; the percent labeling under setting [4] came out at 24.9%; the percent labeling under setting [5] came out at 20.6%; the percent labeling under setting [6] is 34%; the percent labeling under setting [7] was 48.8%. For the same molecule, the percent labeling is 19% under setting [9], 19.8% under setting [10], 15.5% under setting [11] and 36.6% under setting [12].
For `Cc1cn2cc(CC(=O)NCCS)nc2s1`, the percent labeling was 41.3% under setting [1]; 19.3% under setting [2]; 26.9% under setting [3]; 23.4% under setting [4]; 51.5% under setting [5]; 29.7% under setting [6]. The percent labeling by setting is: under setting [7], 30.7%; under setting [8], 41.2%; under setting [9], 24.5%; under setting [10], 28.5%; under setting [11], 26%; under setting [12], 40.3%.
Consider `O=C(CCS)NCC1CN(c2ccccc2)C(=O)O1` (stereo not given), for which the percent labeling runs as follows: under setting [2], 14.6%; under setting [3], 32.7%; under setting [4], 44.4%; under setting [5], 34.4%; under setting [6], 49.8%; under setting [7], 39%. The percent labeling reads like this: under setting [9], 25.8%; under setting [10], 47.3%; under setting [11], 35.3%; under setting [12], 54.3%.
Take `O=C(NC1CCN(C(=O)CCS)CC1)c1ccccc1`: the percent labeling under setting [2] came to 11.8%; the percent labeling under setting [3] was 34.1%; the percent labeling under setting [4] came out at 45.4%; the percent labeling under setting [5] amounted to 34.6%; the percent labeling under setting [6] was determined as 42.4%; the percent labeling under setting [7] worked out at 34.3%. For the same molecule, the percent labeling was 35.8% under setting [9], 42.7% under setting [10], 38% under setting [11] and 57.6% under setting [12].
Molecule `Cc1cn(-c2cccnc2)nc1NC(=O)CCS` yielded a percent labeling under setting [2] of 15.3%; a percent labeling under setting [3] of 27.3%; a percent labeling under setting [4] of 33.4%; a percent labeling under setting [5] of 32.1%; a percent labeling under setting [6] of 29.1%; a percent labeling under setting [7] of 25.9%. In addition, the percent labeling reads like this: under setting [9], 17.3%; under setting [10], 18.2%; under setting [11], 27%; under setting [12], 46.4%.
With `CCOc1ccccc1-c1cc(C(=O)NCCS)[nH]n1`, the percent labeling by setting is: under setting [1], 19.9%; under setting [2], 11.3%; under setting [3], 18.1%; under setting [4], 10.8%; under setting [5], 24.6%; under setting [6], 11.9%. Besides, the percent labeling under setting [7] was 53.6%; the percent labeling under setting [8] came out at 30.5%; the percent labeling under setting [9] was 11.8%; the percent labeling under setting [10] amounted to 19%; the percent labeling under setting [11] was 12.2%; the percent labeling under setting [12] turned out to be 21.5%.
Turning to `CCOC(=O)c1nnc(C2CCN(C(=O)CCS)CC2)s1`, the percent labeling reads like this: under setting [2], 10.3%; under setting [3], 24.8%; under setting [4], 30.4%; under setting [5], 19.4%; under setting [6], 31.8%; under setting [7], 18.8%. The percent labeling runs as follows: under setting [9], 19.3%; under setting [10], 23.2%; under setting [11], 25.4%; under setting [12], 40.6%.
